Laboratory results: PubChem BioAssay AID2675 (National Center for Advancing Translational Sciences (NCATS), 2010)
In all, about 280,000 compounds went through this assay and about 100 (0.036%) were called active. The inconclusive results got no clear call from the source; some entries with a clear call stand among them for comparison. The call rests on the fitted dose curve; in most records, active means well fitted inhibition curve with a large enough effect in the signal ratio, with a control signal flat (not every such curve was filed as active); inconclusive means small, poorly fitted or top-dose-only effect, or effect the other way, or a change in a side signal; inactive means no such curve, though single readings can be large or run the other way; the % refers to the signal ratio. Potencies of inconclusive entries are doubtful fits and often do not repeat. “Side channel” marks fits to a control or component signal instead of the main read-out.

Target: Muscleblind-like protein 1 (Homo sapiens) (UniProt Q9NR56)
Assay: qHTS Assay for Inhibitors of MBNL1-poly(CUG) RNA binding
Conditions: TR-FRET MBNL1-His/biotin-(CUG)12 binding, 665/545 ratio; series mostly up to 57.5 µM
Method in brief: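 His-tagged MBNL1 binding to biotinylated (CUG)12 RNA was measured by TR-FRET using terbium anti-His antibody (0.055 ng/ul final) and streptavidin-XL665 (5 nM final). Compounds were titrated 92 nM to 58 uM; 60 min at room temperature.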
Potency means the concentration at half of the fitted maximal effect; tags describe the fitted curve by direction and shape or compound fluorescence and quenching.

Chain of UniProt Q9NR56 (Q9NR56 whole entry, looked up): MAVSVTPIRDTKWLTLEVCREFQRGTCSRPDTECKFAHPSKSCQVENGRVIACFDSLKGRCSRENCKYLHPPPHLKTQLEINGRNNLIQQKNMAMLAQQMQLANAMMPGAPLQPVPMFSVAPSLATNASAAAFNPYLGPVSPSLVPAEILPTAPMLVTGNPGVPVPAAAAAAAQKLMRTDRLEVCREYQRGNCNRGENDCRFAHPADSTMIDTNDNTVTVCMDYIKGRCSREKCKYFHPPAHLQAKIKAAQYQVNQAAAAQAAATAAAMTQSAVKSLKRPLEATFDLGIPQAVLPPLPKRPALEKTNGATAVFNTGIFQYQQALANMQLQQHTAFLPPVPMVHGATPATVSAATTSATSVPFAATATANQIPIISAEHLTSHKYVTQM

Structure (SMILES) | Potency
N#C/C(=C\c1ccc(Sc2ccc(Cl)cc2)o1)c1nc2ccccc2[nH]1 | inconclusive: 0.0398 µM [fluorescent, side channel, full curve]
Cc1ccnc(NC(=O)c2ccc([N+](=O)[O-])o2)c1 | inconclusive: 10 µM [quencher, partial curve]
COC(=O)c1cc(C(=O)OCC(=O)NC2CCCC2)cc([N+](=O)[O-])c1 | inconclusive: 3.98 µM [quencher, side channel, full curve]
O=C(COC(=O)c1ccc2c(c1Cl)C(=O)c1ccccc1C2=O)NC1CCCCC1 | inconclusive: 12.6 µM [quencher, side channel, partial curve]
C=CCn1c(CCNC(=O)c2cccs2)nnc1SCC(=O)c1cccc([N+](=O)[O-])c1 | inconclusive: 12.6 µM [quencher, partial curve]
CCOC(=O)c1cc2cc([N+](=O)[O-])cc(OC)c2oc1=O | inconclusive: 2.24 µM [quencher, side channel, full curve, poor fit]
CCN(CC)S(=O)(=O)c1cccc(NC(=O)CN2C(=O)c3ccc([N+](=O)[O-])cc3C2=O)c1 | inconclusive: 25.1 µM [quencher, side channel, partial curve]
Cc1cccc(NC(=O)CN2C(=O)N/C(=C/c3ccc(C)o3)C2=O)c1 | inactive
CSc1nc(SCC(=O)NCC2CCCO2)c2c3c(sc2n1)CN(C)CC3 (centres undefined) | inconclusive: 15.8 µM [quencher, side channel, partial curve]
COc1cc(-c2cc(C(F)(F)F)n3ncc(C(=O)O)c3n2)cc(OC)c1OC | inconclusive: 20 µM [quencher, side channel, single point]
CN(C)c1ccncc1C(=O)Nc1ccc(F)cc1F | inactive
Nc1nn(-c2ccccc2)c2ccc([N+](=O)[O-])cc12 | inconclusive: 11.2 µM [quencher, side channel, partial curve]
O=[N+]([O-])c1cnccc1Nc1cccc(F)c1 | inconclusive: 0.112 µM [quencher, side channel, full curve, poor fit]
CCOc1cc(/C=C2\SC(=S)N(Nc3ccccc3)C2=O)ccc1O | inconclusive: 28.2 µM [quencher, side channel, single point]
COc1ccc(-c2cc3ccc(OC(C)C(=O)O)cc3oc2=O)cc1 (centres undefined) | inconclusive: 12.6 µM [quencher, side channel, partial curve]
Nc1ccc(Nc2ccncc2[N+](=O)[O-])cc1 | inconclusive: 12.6 µM [quencher, side channel, partial curve]
Cc1ccc2[nH]c(=O)c(CN3CCCCC3)c(-c3ccccc3)c2c1 | inconclusive: 7.94 µM [quencher, side channel, partial curve]
COC(=O)c1ccc2c(c1)SC1=C(CCCC1=O)N2 | inconclusive: 14.1 µM [quencher, side channel, partial curve]
Nc1nnnn1/N=C/C=C/c1ccccc1 | inconclusive: 14.1 µM [quencher, side channel, partial curve]
CCOC(=O)CN1C(=O)CC(c2ccc([N+](=O)[O-])cc2)C1=O (centres undefined) | inconclusive: 31.6 µM [quencher, side channel, partial curve]

Structure (SMILES) | Potency
COc1ccc2cc(C(=O)NCC(=O)O)sc(=O)c2c1OC | inconclusive: 20 µM [quencher, side channel, partial curve]
O=[N+]([O-])c1ccc2[nH]nc(-c3ccccc3)c2c1 | inconclusive: 39.8 µM [quencher, side channel, partial curve, poor fit]
O=C(NNC(=O)c1cccc(O)c1)Nc1ccc([N+](=O)[O-])cc1 | inconclusive: 28.2 µM [quencher, single point]
O=C(Nc1ccc(Cl)cc1)c1csc(-c2ccccc2)n1 | inactive
COc1cc(/C=N/Nc2nncn2/N=C/c2ccc(O)c(OC)c2)ccc1O | inconclusive: 31.6 µM [quencher, side channel, single point]
CCC(=O)NC(=S)Nc1ccc(NC(=O)COc2ccccc2)cc1 | inconclusive: 0.1 µM [fluorescent, side channel, full curve, poor fit]
NS(=O)(=O)c1ccc(N=Nc2c[nH]c(=O)c(O)c2)cc1 | inconclusive: 14.1 µM [quencher, side channel, partial curve]
CCCCNC(=S)NCCN1CCCCC1 | inconclusive: 79.4 µM [inhibitor, single point]
CC1(OC(=O)CCc2ccccc2)C(=O)C=C2C=C(c3ccc(C#N)cc3)N(Cc3ccco3)C=C2C1=O (centres undefined) | inconclusive: 12.6 µM [quencher, side channel, partial curve]
Cc1cc2nc(N)sc2cc1[N+](=O)[O-] | inconclusive: 20 µM [quencher, side channel, single point]
CSc1nsc(SCC(=O)Nc2ccccn2)n1 | inconclusive: 4.47 µM [quencher, side channel, full curve, poor fit]
Cc1cc(N2CCOCC2)ncc1[N+](=O)[O-] | inconclusive: 14.1 µM [quencher, side channel, partial curve]
C=CCn1c(O)c(N=NC(=O)CNC(=O)c2ccco2)c2ccccc21 | inconclusive: 12.6 µM [quencher, side channel, partial curve]
Cc1ccc(C2=NS(=O)(=O)N(C)C(C(=O)NC3CCCCC3)=C2)cc1 | inconclusive: 22.4 µM [quencher, side channel, partial curve]
C=CCn1c(=N)c(C(=O)NCCCOC)cc2c(=O)n3cc(C)ccc3nc21 | inconclusive: 3.55 µM [quencher, side channel, full curve]
CCC(C)(C)NC(=O)CN(C(=O)c1snc(C(N)=O)c1N)c1ccc(OC)c(OC)c1 | inconclusive: 20 µM [quencher, side channel, single point]
CC(C)[C@H]1CN(C)CCN1Cc1cn(C)nc1-c1cccc(Cl)c1 | inconclusive: 50.1 µM [inhibitor, single point]
Cc1ccc(O)c(C(=O)CC(=O)c2ccc(C(C)(C)C)cc2)c1 | inactive
O=C(CCCNS(=O)(=O)c1cccc2nsnc12)NCCc1ccccc1 | inconclusive: 15.8 µM [quencher, side channel, partial curve]
FC(F)(F)c1cc(-c2ccccc2)nc(NCC2CCCO2)n1 (centres undefined) | inactive

Structure (SMILES) | Potency
COc1ccc(C(=O)Nc2ccc(N3CCN(C(=O)c4ccccc4)CC3)cc2)cc1[N+](=O)[O-] | inconclusive: 15.8 µM [quencher, side channel, partial curve]
O=C(CSc1nc2ccccc2c(=O)n1-c1ccccc1Cl)Nc1cccc(S(=O)(=O)N2CCOCC2)c1 | inconclusive: 15.8 µM [fluorescent, side channel, partial curve]
COc1cc([N+](=O)[O-])cc(/C=N/NC(=O)CC#N)c1O | inconclusive: 79.4 µM [inhibitor, single point]
CCOC(=O)c1sc(=S)n(C)c1C | inconclusive: 35.5 µM [quencher, side channel, single point]
C/C(=N\NC(N)=S)c1ccc(Cl)s1 | inconclusive: 35.5 µM [quencher, side channel, single point]
NC(=O)c1ccc(Sc2nnc(-c3cccs3)n2CC2CCCO2)c([N+](=O)[O-])c1 (centres undefined) | inconclusive: 14.1 µM [quencher, side channel, partial curve]
O=C(c1ccc2ncsc2c1)N1CCCCC1 | inactive
O=C(C1CCCN(S(=O)(=O)c2ccc([N+](=O)[O-])cc2)C1)N1CCCCC1 (centres undefined) | inconclusive: 7.94 µM [quencher, partial curve]
CS(=O)(=O)NCC(c1ccco1)N1CCN(c2ccc(F)cc2)CC1 (centres undefined) | inactive
Cc1cccc(Cl)c1NC(=S)NN | inactive
CCOc1ccc(CN(C)CC(=O)c2c(N)n(Cc3ccccc3)c(=O)n(CC)c2=O)cc1OC | inactive
Cc1ccc(/C=C2\CCOC2=O)cc1 | inconclusive: 17.8 µM [quencher, single point]
c1ccc2c(c1)nc(N1CCOCC1)c1c3ccccc3[nH]c21 | inconclusive: 20 µM [quencher, side channel, partial curve]
C=CCN1C(c2ccccc2)=CS/C1=C(\C#N)c1nnc2n1CCCCC2 | inconclusive: 35.5 µM [quencher, side channel, single point]
CC(=O)c1cccc(N2C(=O)C3C4CCC(C4=C(C)C)C3C2=O)c1 (centres undefined) | inconclusive: 39.8 µM [fluorescent, side channel, partial curve]
CCOCCCNC(=O)CN1C(=O)c2cccc3cccc1c23 | inconclusive: 7.94 µM [quencher, side channel, partial curve]
c1ccc(N2CCN(c3nc(NCc4ccco4)c4ccccc4n3)CC2)cc1 | inactive
Nc1c(C(=O)NCc2cccnc2)sc(=S)n1-c1ccccc1 | inconclusive: 17.8 µM [quencher, side channel, partial curve]
O=C(CCCCCN1C(=O)c2ccccc2C1=O)Oc1ccc2c3c(c(=O)oc2c1)CCC3 | inconclusive: 0.355 µM [fluorescent, side channel, partial curve]
